# Test results as given in the supplement of paper PMC9433436.
# ± gives the standard deviation of the averaged measurements. The full ranking holds about 4,100 sequences; the median of “relative kcat/Km (krel) vs genomic leader AAAGAU” is about 1.7, and the highest 2% start at about 6.5. Only a part is listed here, and it is no random draw.
# Target: T1, E. coli RNase P holoenzyme (M1 P RNA + rnpA protein) (UniProt P0A7Y8)
# T1 sequence: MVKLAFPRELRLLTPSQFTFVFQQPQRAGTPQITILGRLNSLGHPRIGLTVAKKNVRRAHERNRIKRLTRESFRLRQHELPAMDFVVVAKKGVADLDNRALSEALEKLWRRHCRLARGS
# Experiment: relative kcat/Km (krel) vs genomic leader AAAGAU (relative (reference leader = 1)); higher = faster RNase P cleavage
# Protocol: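 HTS-Kin: a pool of ptRNA-Met (21C construct) with all 4096 combinations of 5' leader nucleotides N(-6) to N(-1) was processed in vitro by E. coli RNase P (P RNA + rnpA/C5 protein) under multiple-turnover conditions at 37 C, pH 8, 17.5 mM MgCl2. Residual substrate was Illumina-sequenced at several fractions reacted, and relative kcat/Km (krel) was computed by internal competition kinetics, calibrated to the genomic leader (AAAGAU = 1). The listed hexamer is the varied N(-6)..N(-1) leader (DNA letters), and it sits between a fixed 5' stem-loop flank (GCAUGCACGAAAGUGCGUGCUAUGAA) and the mature tRNA-Met starting GGCUACGUAGCUCAGUUGG. Two technical replicates are averaged.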
# [1] = fraction of substrate reacted: ~9-10% (9.79% repeat 1, 9.1% repeat 2)
# [2] = fraction of substrate reacted: ~13-16% (15.68% repeat 1, 13.17% repeat 2)
# [3] = fraction of substrate reacted: ~26-29% (28.66% repeat 1, 26.4% repeat 2)
Sequence,relative kcat/Km [1],relative kcat/Km [2],relative kcat/Km [3]
ATACAT,2.77 ± 0.72,3.38 ± 0.47,4.87 ± 2.1
GTTGAG,,,1.15 ± 0.24
TAGGCC,1.33 ± 1.1,1.36 ± 0.31,1.35 ± 0.44
ATTAAC,2.63 ± 0.68,3.17 ± 0.4,4.3 ± 1.9
TTTCGG,,,0.932 ± 0.27
AGATCG,,0.602 ± 0.19,1.82 ± 0.53
TATAGC,2.28 ± 0.44,3.41 ± 1.1,4.77 ± 2.5
ATTAAG,,1.45 ± 0.17,2.73 ± 0.5
GGGTAC,0.384 ± 0.092,0.982 ± 0.8,1.22 ± 0.74
ACGAGG,0.906 ± 0.9,,0.796 ± 0.2
CGCGAG,,,2.26 ± 0.36
TAATCT,1.87 ± 1.1,3.08 ± 0.23,4.22 ± 1.6
CCTTGG,1.01 ± 0.43,,0.75 ± 0.38
AACAGA,3.71 ± 2.3,4.083 ± 0.036,5.65 ± 2.1
CCCGTA,3 ± 0.3,3.06 ± 1.1,4.23 ± 1.7
GAGGGT,,,1.44 ± 0.023
CTACGA,1.44 ± 0.19,2.46 ± 0.98,3.49 ± 1.2
AACAAA,3.32 ± 2.3,3.9 ± 0.11,5.24 ± 1.1
CCCACT,1.87 ± 1.1,1.27 ± 0.14,2.79 ± 0.067
TTAGAG,,1 ± 0.043,2.33 ± 0.41
CGCCTT,2.2 ± 0.21,2.27 ± 0.5,4.4 ± 2.4
CGATCA,0.578 ± 0.073,1.46 ± 0.7,1.93 ± 0.13
TCCACA,3.82 ± 1.2,4.26 ± 0.19,5.84 ± 2.4

Sequence,relative kcat/Km [1],relative kcat/Km [2],relative kcat/Km [3]
TCCTCC,3.65 ± 1.8,4.58 ± 1.2,6.57 ± 2.7
TGACTA,1.37 ± 0.11,1.68 ± 0.13,2.45 ± 1.1
TGTTGA,2.15 ± 0.44,3.32 ± 1.3,5.59 ± 2.1
TTCGCC,4.66 ± 1.2,6.09 ± 1.6,9.48 ± 3.8
TGATAA,3.27 ± 0.52,4.18 ± 0.85,5.68 ± 2.5
GAAGAG,1.6 ± 0.85,,1.68 ± 0.19
CCAAGC,1.27 ± 0.25,1.99 ± 0.83,1.86 ± 0.39
GCAGAT,1.47 ± 0.15,,1.32 ± 0.4
GTCCAT,4.26 ± 0.8,6.41 ± 1.5,
ACAGGT,,,1.82 ± 1
TCGAGG,0.256 ± 0.25,,1.28 ± 0.41
GAAAGG,1.01 ± 0.72,,0.673 ± 0.51
TAACCC,0.94 ± 0.71,1.128 ± 0.0073,1.47 ± 0.21
ATAGAA,1.63 ± 0.45,2.53 ± 0.21,3.41 ± 1.1
TCGGGG,,,0.852 ± 0.55
GGACCT,1.27 ± 0.28,1.38 ± 0.52,1.91 ± 0.91
AACGGT,,,3.55 ± 2.4
CATGCA,0.899 ± 0.83,0.687 ± 0.61,0.795 ± 0.12
TATACA,1.36 ± 0.29,2.13 ± 0.035,3.02 ± 1.8
ACGGGC,,1.13 ± 0.13,
TTCATC,4.42 ± 1.8,5.94 ± 0.79,
CAGTTG,,,0.967 ± 0.11
CCATGC,1.28 ± 0.52,1.27 ± 0.065,2.07 ± 0.2

Sequence,relative kcat/Km [1],relative kcat/Km [2],relative kcat/Km [3]
GATATG,,0.649 ± 0.13,1.97 ± 0.025
GTCCCC,2.87 ± 2.5,4.17 ± 0.82,5.29 ± 1.4
CACAAA,3.35 ± 0.11,4.93 ± 1.2,6.59 ± 2.9
TACCCC,2.87 ± 0.45,3.43 ± 0.39,4.46 ± 2.2
AACCAA,2.19 ± 1.5,2.84 ± 0.51,3.69 ± 1
CTACCG,0.197 ± 0.063,,0.611 ± 0.1
GTTTAA,3.62 ± 0.62,4.49 ± 0.5,6.31 ± 3
AAAGTC,0.885 ± 0.27,1.31 ± 0.47,1 ± 0.04
GGGATT,,1.14 ± 0.67,1.57 ± 0.97
AGATAT,2.81 ± 0.29,4.18 ± 0.57,5.87 ± 2.8
AACCTA,2.59 ± 0.77,2.32 ± 0.46,2.95 ± 1
GCAAGA,,1.41 ± 0.34,1.56 ± 0.12
GCCTCG,1.167 ± 0.0063,0.682 ± 0.082,1.98 ± 0.34
CGCATC,2.76 ± 1.9,2.73 ± 0.72,4.28 ± 1.2
ACTCCA,0.963 ± 0.67,1.2 ± 0.18,1.454 ± 0.011
GGAAAC,1.99 ± 1.4,1.61 ± 1.1,2.23 ± 0.17
AAAGAA,0.874 ± 0.68,1.13 ± 0.55,1.33 ± 0.36
ACTATA,2.22 ± 0.72,1.75 ± 0.13,2.59 ± 0.73
TGCATT,0.949 ± 0.79,1.93 ± 1.2,2.68 ± 1.7
TATAAA,2.45 ± 1.2,2.7 ± 0.44,5.1 ± 2.2
GATGTA,1.79 ± 0.92,0.859 ± 0.61,1.28 ± 0.19
AGTCAC,4.5 ± 2.3,4.987 ± 0.032,7.1 ± 2.9
GTATGG,,0.253 ± 0.21,1.01 ± 0.7

Sequence,relative kcat/Km [1],relative kcat/Km [2],relative kcat/Km [3]
AATAGT,,,1.9 ± 1.9
GAAAAA,1.1 ± 0.54,0.792 ± 0.45,2.06 ± 0.83
TTAGAC,4.11 ± 3,3.64 ± 0.28,4.98 ± 1.7
CCCACC,3.4 ± 0.23,2.73 ± 0.96,4.44 ± 1.5
TGGATT,0.769 ± 0.44,1.29 ± 0.93,1.47 ± 1.3
ATAGCC,2.13 ± 0.14,1.45 ± 0.049,2.11 ± 1
ATGCTC,1.43 ± 0.28,1.17 ± 0.12,1.29 ± 0.029
ACCCCA,2.32 ± 0.72,2.4 ± 0.059,2.56 ± 1.2
AGGTAG,,0.269 ± 0.23,1.16 ± 0.2
CCGCCC,2.03 ± 0.63,2.23 ± 0.37,2.86 ± 0.96
TCTTAG,2.09 ± 1.6,1.962 ± 0.0029,3.5 ± 0.73
GACGTG,1.12 ± 1.1,0.43 ± 0.042,1.1 ± 0.3
AGAACA,2.34 ± 1.9,2.06 ± 0.13,2.48 ± 0.4
GCGAGT,0.771 ± 0.3,,0.716 ± 0.32
ACAACC,2.09 ± 1.5,1.34 ± 0.51,1.66 ± 0.25
CTTTTT,2.99 ± 1.5,3.27 ± 0.75,4.46 ± 1.3
CTACCC,2.18 ± 1.1,1.54 ± 0.49,1.85 ± 0.57
TGGAGT,,,1.17 ± 1.1
TGCTCT,0.944 ± 0.33,1.02 ± 0.37,1.5 ± 0.59
CGAGTA,,,1.1 ± 0.25
CTAGCA,,0.948 ± 0.55,1.05 ± 0.61
TCGTAC,4.21 ± 1.1,5.11 ± 1.9,7.91 ± 3.5
CGTTAC,3.84 ± 0.72,5.28 ± 1.9,7.82 ± 2.9

Sequence,relative kcat/Km [1],relative kcat/Km [2],relative kcat/Km [3]
CTGCAA,1.614 ± 0.0022,2.09 ± 1,2.05 ± 0.78
TCCTGC,4.64 ± 1.6,5.78 ± 1.5,
TATTAC,3.92 ± 1.1,5.68 ± 0.93,7.86 ± 3.4
AGGTAT,1.3 ± 0.69,1.49 ± 0.76,1.62 ± 1
TTGATG,,,1.21 ± 0.41
TGAGAA,2.19 ± 0.97,2.44 ± 0.68,3.67 ± 1.5
TTTCAC,3.76 ± 1.6,4.95 ± 0.89,
CATTAA,3.66 ± 2.4,4.11 ± 0.12,5.92 ± 2
GAACCC,1.33 ± 0.29,1.9 ± 0.13,1.77 ± 0.62
TTCTTA,4.55 ± 1.2,5.9 ± 0.59,7.98 ± 3.2
AGGCCA,0.698 ± 0.37,0.346 ± 0.19,0.612 ± 0.07
CAGCGA,1.67 ± 0.34,1.53 ± 0.28,2.81 ± 1.2
GGTAAC,1.47 ± 0.022,1.618 ± 0.0045,2.64 ± 1.5
ATAAGC,2.05 ± 1.6,2.29 ± 0.24,2.7 ± 1
TGCCGT,,,1.84 ± 1.4
GAATGC,2.02 ± 0.32,2.68 ± 0.59,3.53 ± 1.4
GGTCAG,0.583 ± 0.24,0.751 ± 0.55,2.25 ± 0.64
CCAAAA,1.12 ± 0.12,0.652 ± 0.028,1.4 ± 0.21
GGAAAG,,,2.16 ± 0.072
CTTATA,2.43 ± 1.2,2.02 ± 0.082,3.01 ± 0.78
GTTTGG,0.235 ± 0.041,,0.651 ± 0.1
CCTAGT,0.659 ± 0.3,1.51 ± 0.24,1.57 ± 1.6
TAACCA,,1.18 ± 0.99,1.43 ± 0.052

Sequence,relative kcat/Km [1],relative kcat/Km [2],relative kcat/Km [3]
TGACGC,2.38 ± 0.66,2.52 ± 0.32,3.83 ± 1.3
CCAAAT,1.85 ± 0.057,1.78 ± 0.41,2.23 ± 0.56
GTCCAA,3.74 ± 1.3,4.92 ± 0.95,7.96 ± 3
GCCGCG,0.48 ± 0.019,,1.9 ± 0.086
AACCGT,,,1.29 ± 1.1
CAACTC,1.43 ± 0.42,1.08 ± 0.39,1.37 ± 0.27
TTGAGC,1.16 ± 0.28,1.24 ± 0.71,1.47 ± 0.22
GCAAGC,1.46 ± 0.85,1.14 ± 0.044,1.69 ± 0.025
CTCAGC,4.51 ± 1.9,5.37 ± 1.6,
AATACT,1.38 ± 0.65,1.67 ± 0.028,2.3 ± 0.83
CGCGGT,,,1.83 ± 1.4
CCGTAC,3.58 ± 1,4.22 ± 0.54,5.69 ± 2.3
AGGACC,1.31 ± 0.32,1.03 ± 0.23,0.684 ± 0.07
GAGCAT,2.28 ± 0.55,2.35 ± 0.13,3.52 ± 1.2
GTATTA,1.82 ± 1.1,2.58 ± 0.058,3.31 ± 1.3
CAGGCA,0.507 ± 0.12,0.66 ± 0.32,0.524 ± 0.2
GGACAT,1.66 ± 0.023,2.29 ± 0.62,3.54 ± 1.4
GGCAGG,,,0.714 ± 0.04
